# Experimental data from PubChem BioAssay AID1347071 (National Center for Advancing Translational Sciences (NCATS), 2019).
# The whole screen tested about 410,000 compounds, of which about 260 (0.063%) were called active. This list was built around the results that the source calls inconclusive (neither active nor inactive); the mix of calls is not that of the screen. Calls follow the shape of the dose curve; as a rule, active = well fitted activation curve with a large enough effect; inconclusive = small, poorly fitted or top-dose-only effect; inactive = no such curve, though single readings can be large or run the other way. Potencies of inconclusive entries are left out as doubtful fits.
# Test: qHTS for compounds that reverse cellular toxicity of Amyloid beta (A-beta) peptide in yeast: Primary Screen; also: nearly all actives have a fitted effect of over 55% in size
# Conditions: yeast expressing A-beta42, growth rescue, OD600, 48 h; growth rescue: at 46.1 µM (top of the series), 0% DMSO, 100% iron-clioquinol control
# Method in brief: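 Yeast growth medium received pinned compounds, then yeast cells expressing toxic A-beta were added; plates incubated at 30 C for 48 hr. Growth read as absorbance at 600 nm, normalized to DMSO and equimolar FeCl3 plus clioquinol controls.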
# Potency is read from the fitted curve at half-maximal effect; tags tell the direction and shape of the fitted curve.
Compound,Potency,growth rescue
Cc1ccc(C2CCN(C(=S)Nc3cccc(Cl)c3)C2)cc1 (stereo not drawn),"inconclusive [activator, partial curve, poor fit]",
Cc1ccc(Cn2c(O)c(N=O)c3ccccc32)cc1,"inconclusive [activator, partial curve, poor fit]",
CCOc1ccc(C(=O)CC(NCc2cccs2)C(=O)O)cc1 (stereo not drawn),,inactive: -25.2%
CN(C)S(=O)(=O)Oc1ccccc1C(=O)Nc1ccc(F)cc1,"inconclusive [activator, single point]",
COc1ccc(NC(=S)Nc2ccc(Oc3ccccc3)cc2)cc1,"inconclusive [activator, single point]",
CC(C)(C)S(=O)(=O)c1ccccc1-c1noc(-c2ccccc2)c1C(N)=O,"inconclusive [activator, partial curve, poor fit]",
Cc1ccc(C(=O)NNC(=O)c2ccc(S(=O)(=O)N3CCCCC3)cc2)cc1,,inactive: -6.69%
CNC(=S)Nc1ccc(OCc2ccccc2)cc1,"inconclusive [activator, single point]",
Cc1ccc[n+](-c2[nH]c(=O)sc2/C=N/NC(=O)c2ccccc2[O-])c1,"inconclusive [activator, single point]",
CC(=O)c1cccc(NC(=O)c2cnn(-c3ccccc3)c2C)c1,"inconclusive [activator, single point]",
COc1ccccc1C(CC(=O)c1ccccc1)C(=O)c1ccccc1 (stereo not drawn),"inconclusive [activator, full curve]",
CCCSCCCNC(=O)C1CCN(C(=O)c2cc3sccc3n2C)CC1,,inactive: 2.22%
CCOc1ccc(C(C)NC(=S)NCc2ccc(F)cc2)cc1 (stereo not drawn),"inconclusive [activator, partial curve, poor fit]",
Cc1cc(OCC(=O)NNC(=O)c2cnccn2)cc(C)c1Cl,"inconclusive [activator, single point]",
Cn1nc2c3ccccc3n(Cc3ccccc3)c2nc1=S,"inconclusive [activator, single point]",
CCCSc1nsc(NC(=O)CC)n1,"inconclusive [activator, partial curve, poor fit]",
N#Cc1c(-c2cccc([N+](=O)[O-])c2)nc2n(c1=O)CCS2,"inconclusive [activator, full curve, poor fit]",
CCc1ccc(CN(C)Cc2nc(Cc3cccc(C(F)(F)F)c3)no2)nc1,"inconclusive [activator, single point]",
